Experimental data as given in the antibiotic and cytotoxicity screens of Wong et al. (2023).
The other results are listed elsewhere or left out.

What was measured:
HSkMC = human skeletal muscle cells; experiment: cytotoxicity call (relative viability < 0.9); conditions: 10 µM
HepG2 = experiment: cytotoxicity call (relative viability < 0.9); conditions: 10 µM
S. aureus RN4220 = experiment: growth inhibition call (relative growth <= 0.2); conditions: 50 µM

C[C@@H]1CN([C@H](C)CO)C(=O)Cc2cc(NC(=O)C3CC3)ccc2O[C@H]1CN(C)S(=O)(=O)c1ccc(F)cc1
inactive: cytotoxicity call (HSkMC) | cytotoxicity call (HepG2) | growth inhibition call (S. aureus RN4220)

C[C@@H]1CN(CC(=O)N2CC(C)(C)c3nc(CO)c(Cc4ccc(F)cc4)cc32)[C@@H](CN2CCOC[C@H]2C)CN1
inactive: cytotoxicity call (HSkMC) | cytotoxicity call (HepG2) | growth inhibition call (S. aureus RN4220)

C[C@@H]1CCCCO[C@H](CN(C)C(=O)Nc2ccc(C(F)(F)F)cc2)[C@@H](C)CN([C@H](C)CO)C(=O)c2cc(NC(=O)C3CCCCC3)ccc2O1
inactive: cytotoxicity call (HSkMC) | cytotoxicity call (HepG2) | growth inhibition call (S. aureus RN4220)

C[C@H](CO)N1C[C@H](C)[C@@H](CN(C)C(=O)CCN2CCCCC2)Oc2ncc(C#CCN(C)C)cc2C1=O
inactive: cytotoxicity call (HSkMC) | cytotoxicity call (HepG2) | growth inhibition call (S. aureus RN4220)

COc1ccc(NC(=O)Nc2ccc3c(c2)CC(=O)N([C@H](C)CO)C[C@H](C)[C@H](CN(C)CC2CCCCC2)O3)cc1
inactive: cytotoxicity call (HSkMC) | cytotoxicity call (HepG2) | growth inhibition call (S. aureus RN4220)

C[C@@H]1CN([C@H](C)CO)C(=O)c2cc(NC(=O)CCCCCC(=O)Nc3ccccc3N)ccc2O[C@@H]1CN(C)Cc1ccc(C(F)(F)F)cc1
inactive: cytotoxicity call (HSkMC) | cytotoxicity call (HepG2) | growth inhibition call (S. aureus RN4220)

COc1ccc(S(=O)(=O)Nc2ccc3c(c2)CC(=O)N([C@H](C)CO)C[C@H](C)[C@@H](CN(C)CC2CC2)O3)cc1
inactive: cytotoxicity call (HSkMC) | cytotoxicity call (HepG2) | growth inhibition call (S. aureus RN4220)

C[C@H]1CN([C@@H](C)CO)C(=O)CCCn2nncc2CO[C@H]1CN(C)S(=O)(=O)c1ccc2ccccc2c1
inactive: cytotoxicity call (HSkMC) | cytotoxicity call (HepG2) | growth inhibition call (S. aureus RN4220)

COc1ccccc1CN1C(=O)c2ccccc2[C@](Cc2ccccc2I)(C(=O)NCC(F)(F)F)[C@@H]1c1ccc(CO)cc1
inactive: cytotoxicity call (HSkMC) | cytotoxicity call (HepG2) | growth inhibition call (S. aureus RN4220)
